According to a compilation of properties of binary mixtures (doi:10.1016/j.molliq.2021.116805):
The densities may have been worked out from excess volumes.

Assay: xn = mol fraction of the nth substance listed
Conditions: 101 kPa

CCCCCCCCCCCCCCCCCC[n+]1ccn(C)c1.O=S(=O)([N-]S(=O)(=O)C(F)(F)F)C(F)(F)F + CCCCCCCCCCCCCCCCn1cc[n+](C)c1.O=S(=O)([N-]S(=O)(=O)C(F)(F)F)C(F)(F)F
mass density (333 K, x2 = 0.621): 1149.9 kg/m3 | mass density (343 K, x2 = 0.621): 1141.9 kg/m3 | mass density (353 K, x2 = 0.621): 1134 kg/m3

CCCCCCCCCCCCCC[n+]1ccn(C)c1.O=S(=O)([N-]S(=O)(=O)C(F)(F)F)C(F)(F)F + CCCCCCCCCCCCCCCCn1cc[n+](C)c1.O=S(=O)([N-]S(=O)(=O)C(F)(F)F)C(F)(F)F
mass density (313 K, x1 = 0.6709): 1192.5 kg/m3 | mass density (323 K, x1 = 0.6709): 1184.3 kg/m3 | mass density (333 K, x1 = 0.6709): 1176.2 kg/m3 | mass density (343 K, x1 = 0.6709): 1168.1 kg/m3 | mass density (353 K, x1 = 0.6709): 1160.1 kg/m3

CCCCCCCCCCCCCCCCCC[n+]1ccn(C)c1.O=S(=O)([N-]S(=O)(=O)C(F)(F)F)C(F)(F)F + CCCCCCCCCCCCCC[n+]1ccn(C)c1.O=S(=O)([N-]S(=O)(=O)C(F)(F)F)C(F)(F)F
mass density (333 K, x2 = 0.7675): 1174.1 kg/m3 | mass density (343 K, x2 = 0.7675): 1165.9 kg/m3 | mass density (353 K, x2 = 0.7675): 1157.9 kg/m3
